In PubChem BioAssay AID445 (National Center for Advancing Translational Sciences (NCATS), 2006):
Among all 110,000 compounds or so, about 40 (0.04%) were called active. The inconclusive results got no clear call from the source; some entries with a clear call stand among them for comparison. Calls follow the shape of the dose curve; as a rule, active = well fitted curve in the direction sought with a large enough effect in the signal ratio (not every such curve was filed as active); inconclusive = small, poorly fitted or top-dose-only effect, or a change in a side signal; inactive = flat fitted curve, though single readings scatter; the % refers to the signal ratio. A potency beside an inconclusive call is a rough fit, not a confirmed value.

Assay: IkB Signaling;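 as to IkBa stabilization activation: 0% = basal untreated cells and 100% = reference inhibitor full response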
Settings: ABC-DLBCL IkBa-CBG/CBR dual luciferase ratio (green luciferase fused to IkBa over red control in OCI-Ly3 lymphoma cells), 4 h; IkBa stabilization activation: at 57.1 µM (top of the series), scaled: untreated 0%, proteasome inhibitor 100% unless noted
Summary of the method: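 In this assay, an IκBα–CBG68 fusion accumulates when IKK-driven degradation is blocked; native CBR normalizes for cell number. OCI-Ly3 cells were treated 4 h with compound and doxycycline, then green and red light read after Chroma-Glo addition.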
Potency is read from the fitted curve at half-maximal effect.

Compound | IkBa stabilization activation | Potency
COc1cccc(C(=O)Nc2ccccc2C(=O)OCc2cc(=O)n3c4c(sc3n2)CCCC4)c1 | inactive: 7.27% | –
CC(C)N(C(=O)CSc1cn(CC(=O)N2CCCCCC2)c2ccccc12)C(C)C | inconclusive: 0.603% [signal inhibitor] | –
Cc1coc2c(C)c3oc(=O)c(CCC(=O)NCCc4ccccc4F)c(C)c3cc12 | inactive: -1.35% | –
CNC(=O)CCc1nc(-c2ccc(C(C)(C)C)cc2)no1 | inactive: 1.75% | –
COc1cccc(/C=C/c2nc(C#N)c(N3CCC(C(N)=O)CC3)o2)c1 | inconclusive: -0.38% [signal inhibitor] | –
C[C@H]1[C@H](C)CC[C@@]2(C(=O)O)CC[C@]3(C)C(=CC[C@@H]4[C@@]5(C)CC[C@H](O)C(C)(C)[C@@H]5CC[C@@]43C)[C@@H]12 | inactive: 0.428% [at 11.4 µM, scaled: untreated 0%, proteasome inhibitor 100%] | –
COc1ccc(Br)cc1S(=O)(=O)Nc1cc(-c2cn3ccccc3n2)ccc1C | inactive: 0.452% | –
CCOc1ccc(CCNC(=O)c2cn(-c3ccc(OC)cc3)c(=O)c3ccccc23)cc1OCC | inactive: 2.25% | –
Cc1ccc(C)c(-c2nnc(OCC(=O)Nc3cc(C)on3)c3ccccc23)c1 | inconclusive: -0.229% [signal inhibitor] | –
COc1ccccc1Nc1sc(C(=O)c2ccc(F)cc2)c(N)c1S(=O)(=O)c1ccc(C)cc1 | inconclusive: -2.14% [signal inhibitor] | –
COc1ccc(CNC(=O)CCc2c(C)nc3c(c(C)nn3-c3ccccc3)c2C)cc1 | inconclusive: 2.07% [signal inhibitor] | –
Cc1ccc(-n2ncc3c(Nc4cccc(Cl)c4)ncnc32)c(C)c1 | inconclusive: -0.0837% [signal inhibitor] | –
CCCCN(C)S(=O)(=O)c1ccc(C(=O)Nc2nnc(-c3cccs3)o2)cc1 | – | inconclusive: 25.1 µM [signal inhibitor, partial curve]
COc1cccc(-c2nn(-c3ccccc3)cc2C(=O)Nc2nccs2)c1 | inconclusive: 1.08% [signal inhibitor] | –
COc1cc(NC(=O)C2=CC(c3ccc(F)cc3)=NS(=O)(=O)N2C)cc(OC)c1OC | – | inconclusive: 31.6 µM [signal inhibitor, single point]
Cc1nc(SCC(=O)Nc2ccc3c(c2)OCCO3)c2oc3ccccc3c2n1 | inactive: -3.4% | –
Nc1ccc(N2CCCCCC2)cc1 | inconclusive: 12.7% [signal inhibitor] | –
O=C(CSc1nccn1Cc1ccc(F)cc1)Nc1nc2ccccc2s1 | inconclusive: 1.56% [signal inhibitor] | –
COc1ccccc1-c1noc(-c2cc(OC)c(OC)c(OC)c2)n1 | inactive: -2.23% | –
COc1ccc(Cl)cc1NC(=O)c1cn(C2CCCC2)c(=O)c2c1c1ccccc1n2C | inconclusive: 2.32% [signal inhibitor] | –
CC[C@]1(O)C[C@@H]2CN(CCc3c([nH]c4ccccc34)[C@](C(=O)OC)(c3cc4c(cc3OC)N(C=O)[C@H]3[C@@](O)(C(=O)OC)[C@H](C(=O)OC)[C@@]5(CC)C=CCN6CC[C@]43[C@H]65)C2)C1 | inactive: 0.741% | –
O=C(NCC(c1cccs1)S(=O)(=O)c1ccccc1)c1ccc(C(F)(F)F)cc1 (stereo not given) | inconclusive: 0.509% [signal inhibitor] | –
O=C(Nc1ccc(F)cc1)c1ccc2c(=O)n3c(nc2c1)CCCCC3 | inconclusive: 1.46% [signal inhibitor] | –
Cc1ccc(-c2nnc(CSc3nnc4c5c(C)c(C)sc5nc(C(C)C)n34)o2)cc1 | inactive: 3.87% | –

Compound | IkBa stabilization activation | Potency
Cc1cccc(N(CC(=O)Nc2ccccc2C(F)(F)F)S(=O)(=O)c2ccccc2)c1C | inconclusive: 10.7% [signal inhibitor] | –
CN(C)CCNC(=O)Cn1ccc2cc(S(=O)(=O)N3CCCCCC3)ccc21 | inconclusive: -0.947% [signal inhibitor] | –
COc1ccc(CNC(=O)CSc2ncc3c(n2)-c2ccc(Cl)cc2N(Cc2ccccc2)S3(=O)=O)cc1 | inconclusive: -0.304% [signal inhibitor] | –
Cc1cc(Cl)ccc1OCC(=O)N(Cc1ccco1)Cc1ccccc1F | inconclusive: 1.08% [signal inhibitor] | –
O=C(CN(c1ccccc1)S(=O)(=O)c1ccccc1)N1CCN(Cc2ccc3c(c2)OCO3)CC1 | inconclusive: 1.9% [signal inhibitor] | –
COc1ccc(-c2noc(-c3ccc(N4CCCC4)c([N+](=O)[O-])c3)n2)cc1OC | inconclusive: 1.36% [signal inhibitor] | –
CCc1ccc(-n2nc(C)c3c(C(=O)N4CCN(c5ccccc5)CC4)cc(C)nc32)cc1 | inconclusive: -1.8% [signal inhibitor] | –
CCCCN(CCCC)S(=O)(=O)c1ccc2oc(C(=O)N3CCOCC3)c(C)c2c1 | inactive: 3.25% | –
CC(C)(C)NC(=O)NC(=O)COc1ccccn1 | inactive: 0.25% | –
COc1ccc(NC(=O)c2ccco2)cc1NC(=O)C(C)(C)Oc1ccc(Cl)cc1 | inconclusive: 6.44% [signal inhibitor] | –
CCOc1ccc(NC(=O)Cn2cnc3sc(C)c(S(=O)(=O)N4CCN(c5ccccc5OC)CC4)c3c2=O)cc1 | inactive: 0.818% | –
CCCC(=O)OC(=O)CCC | inactive: -0.319% | –
Cc1cccc(C)c1-n1ncc(C(=O)O)c1C1CCN(C(=O)OC(C)(C)C)CC1 | inconclusive: 2.24% [signal inhibitor] | –
CCOC(=O)Cc1nnc2c(Nc3ccc(C)cc3)nc3nonc3n12 | inconclusive: 3.29% [signal inhibitor] | –
COc1ccc(-c2noc(-c3ccc(N4CCOCC4)c([N+](=O)[O-])c3)n2)cc1 | inconclusive: 1.14% [signal inhibitor] | –
Nn1c(SCc2csc(-c3ccccc3)n2)nnc1-c1cccs1 | inactive: 1.04% | –
CC1=C(C(=O)Nc2ccccc2C)C(c2cccs2)n2nc(SCc3ccccc3)nc2N1 (stereo not given) | inconclusive: -0.521% [signal inhibitor] | –
O=C(O)c1cc(/C=N\O)ccc1OCc1ccccc1 | inconclusive: 14% [signal inhibitor] | –
CN(C(=O)CC(=O)Nc1ccc2nc3n(c(=O)c2c1)CCCCC3)c1ccccc1F | inactive: 0.977% | –
CCn1c(COc2ccccc2)nnc1SCC(=O)Nc1ccc2c(c1)OCCO2 | inconclusive: 1.35% [signal inhibitor] | –
CC#C[C@]1(O)CC[C@H]2[C@@H]3CCC4=CC(=O)CCC4=C3[C@H](c3ccc(N(C)C)cc3)C[C@@]21C | inconclusive: 2.01% [signal inhibitor] | –
CC(C)OCCCn1c(=O)c2ccccc2n2c(-c3ccccc3)nnc12 | inactive: 2.58% | –
Cc1cc(C)n(-c2ccc(Cl)c(C(=O)O)n2)n1 | inactive: 1.24% | –
CC1(C)CC(=O)c2cnc(NC(=O)CCc3ccccc3)nc2C1 | inactive: -4.11% | –

Compound | IkBa stabilization activation | Potency
Nc1nc(SCC(=O)c2ccc(Br)cc2)c2[nH]cnc2n1 | inactive: -0.89% [at 11.4 µM, scaled: untreated 0%, proteasome inhibitor 100%] | –
COc1ccc(NCc2cccn2-c2nnc(N3CCCCCC3)s2)cc1 | inconclusive: 2.03% [signal inhibitor] | –
COc1cc(OC)c(NC(=O)CCS(=O)(=O)c2ccc3c(c2)oc(=O)n3C)cc1Cl | inconclusive: -0.952% [signal inhibitor] | –
CCN(CC)S(=O)(=O)c1cccc(-c2nnc(SCC(=O)c3cc(C)n(C)c3C)o2)c1 | inactive: 1.54% | –
Cc1ccc(NC(=O)NC2=N/C(=C(/C#N)C(=O)N3CCCC3)c3ccccc32)cc1 | inconclusive: 2.17% [signal inhibitor] | –
COc1ccccc1NC(=O)Cn1c(CN2CCCCC2)nc2ccccc2c1=O | inconclusive: 1.7% [signal inhibitor] | –
CCOC(=O)CCCNC(=O)COC(=O)c1cccc(C)c1O | – | inconclusive: 25.1 µM [signal inhibitor, partial curve]
Nc1c(C(=O)c2ccccc2)oc2ccc(Br)cc12 | inconclusive: 14.8% [signal activator] | –
CCc1nnc(NC(=O)CSc2nnc(-c3ccoc3C)n2-c2cccc(C)c2)s1 | inactive: 1.39% | –
COc1ccc(-c2nnc(NC(=O)c3ccc(S(=O)(=O)N4CCc5ccccc5C4)cc3)o2)cc1 | inconclusive: 8.68% [signal inhibitor] | –
O=C(Nc1cccnc1)c1c(F)c(F)c(F)c(F)c1F | inactive: 0.973% | –
O=C(Nc1ccc(N2CCCCC2)c(C(=O)O)c1)c1ccco1 | inactive: -0.78% | –
CCn1c(/N=C/c2c[nH]c3ccccc23)nc2ccccc21 | inactive: 17.3% | –
COCCn1c(Cc2ccccc2)nnc1SCC(=O)NC(C)C | inconclusive: 1.87% [signal inhibitor] | –
Cc1ccc(-c2noc(CCC(=O)N(C)c3ccccc3F)n2)cc1 | inconclusive: 15.4% [signal inhibitor] | –
CCC(C)Sc1nc2c(c(=O)[nH]c(=O)n2C)n1Cc1ccccc1Cl (stereo not given) | inactive: 1.27% | –
Cc1csc(NC(=O)c2cccc(Cn3nc(C)c(Br)c3C)c2)n1 | inconclusive: -0.372% [signal inhibitor] | –
COc1ccc(Nc2c3c(nc4ccccc24)CCC3)cc1Cl | inconclusive: 0.106% [signal inhibitor] | –
Cc1cccc(NC(=O)Cn2c(=O)n(Cc3ccc4c(c3)OCO4)c(=O)c3oc4ccccc4c32)c1C | inconclusive: 2.01% [signal inhibitor] | –
COc1ccc2[nH]c(=O)c(CN(CC3CCCO3)C(=O)Nc3ccccc3)cc2c1 (stereo not given) | inconclusive: 4.35% [signal inhibitor] | –
CC(=O)c1cccc(NC(=O)c2cnn3ccccc23)c1 | inactive: 2.3% | –
COc1ccc(OC)c(CNC(=O)Nc2cn(CC(C)C)c(=O)c3ccccc23)c1 | inconclusive: 4.28% [signal inhibitor] | –
